# Article PMC12136788
# The other results are listed elsewhere or left out.
# T1: UNK ZnF1-6 (called full-length) (human, UniProt Q9C0B0 30-357)
# T1 sequence: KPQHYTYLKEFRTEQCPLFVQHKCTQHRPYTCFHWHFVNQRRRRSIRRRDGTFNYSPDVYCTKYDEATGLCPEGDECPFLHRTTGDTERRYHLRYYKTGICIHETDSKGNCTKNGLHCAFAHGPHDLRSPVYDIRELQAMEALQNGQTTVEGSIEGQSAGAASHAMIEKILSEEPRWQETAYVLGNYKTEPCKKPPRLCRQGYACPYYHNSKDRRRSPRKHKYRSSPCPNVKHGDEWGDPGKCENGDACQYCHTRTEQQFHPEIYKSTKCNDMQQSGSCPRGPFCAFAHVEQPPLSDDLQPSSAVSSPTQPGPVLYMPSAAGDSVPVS
# B1: chr1:159061598:159062691:-|three_prime_utr|ENSG00000163568|control|control|control (ssRNA)
# RNA: GGGAGUUCUACAGUCCGACGAUCUCAAUCAGAUUGUAAGUUACCUGAAAGCUGCAGUUCACAGGCUCCUCUCUCCACCAAAUUAGGAUAGAAUAAUUGCUGGAUAAACAAAUUCAGAAUAUCAACAGAUGAUCACAAUAAACACAACAGAGGAUUGAGCAUCA
# B2: ENSG00000198589:be:win_1801|CDS|ENSG00000198589|bound_else_gene|NA|bound_elsewhere_windowed (ssRNA)
# RNA: GGGAGUUCUACAGUCCGACGAUCACAGUCAACAUAUAUAACACCAUUCGGAGAGUUGGAACAGUGCUUCUCAUCAUGCACACGCUGAAGUACUACUACUGGGCAGUGAAUCCUCAGGAUCGAAGUGGUAUCACCCCAAAAGGACAACAGAGGAUUGAGCAUCA
# B3: chr1:89935720:89935824:+|3pUTR|ENSG00000171492|msi1|FALSE|bound_elsewhere (ssRNA)
# RNA: GGGAGUUCUACAGUCCGACGAUCUACAAGAUAAUGCAUUUUAGGAGUAGAUACAUCUUUUAAAAUAAAACAGAGAGGAUGCAUAGAAGGCUGAUAGAAGACAUAACUGAAUGUUCAAUGUUUGUAGGGUUUUAAGUCAUUCAUCAACAGAGGAUUGAGCAUCA
# B4: chr4:138167974:138168075:-|3pUTR|ENSG00000151012|msi1|FALSE|unique (ssRNA)
# RNA: GGGAGUUCUACAGUCCGACGAUCCACAAAAUCUGCAUUGUCCAUGUGAGUAAAGUAAAAUAAUUCCUGUUAUUUUUUUCUGUUAGAAAUAAGUAUGGAGGAUAUGUUUUUAAAAAUUUAUGAGUUAAUUGAAAUAUCCAUAUACAACAGAGGAUUGAGCAUCA
# B5: chr17:5489330:5489445:+|CDS|ENSG00000167842|unk|FALSE|unique (ssRNA)
# RNA: GGGAGUUCUACAGUCCGACGAUCACGUUGACUUUCUUUGAUGAGCUUCAUAAUGUUGGCAGAGAUCAUGGGACUAGUGAUUUUAGGGAGAGUUUAGUAUCCCUGGUUCAGAACUCCAGAAAACUACAGAACAUUAGAGACAAUCAACAGAGGAUUGAGCAUCA
# B6: chr1:178442813:178442920:+|CDS|ENSG00000075391|unk|total|mutant (ssRNA)
# RNA: GGGAGUUCUACAGUCCGACGAUCAAAGCAGACAAUAUUUUCUGGGGCGAACAUUUUGAAUUCUUCAGCCUUCCACCUCUUCACCGUAUCACAGUUCACAUUUACAAGGAUGUGGAAAAAAAGAAAAAAAAGGACAAGAAUAAUCAACAGAGGAUUGAGCAUCA
# B7: chr12:50222030:50222167:-|CDS|ENSG00000050405|unk|total|mutant (ssRNA)
# RNA: GGGAGUUCUACAGUCCGACGAUCAUCCAGGCAUGAAGCCGAAAAAUCAGAAAUCAGUGAAAACACAGAUGCUUCGGGCAAAACCGAGAAAUAUAAUGUUCCGCUGAACAGGCUUAAGAUGAUGUUUGAGAAAGGUGAACCAACCAACAGAGGAUUGAGCAUCA
# B8: chr2:48379045:48379146:+|3pUTR|ENSG00000170802|unk|FALSE|unique (ssRNA)
# RNA: GGGAGUUCUACAGUCCGACGAUCCCUUAUCCUCUUUUCUGAUGUAGCAUAAAAAUUGUCCCGGUUUGAGUUAUAACUGCCAGUAGAUGACCAGUCACAAGUGAACCACUUCUCAGUUGCCAAUCUUUGCUCAUAUUAAAAACACAACAGAGGAUUGAGCAUCA
# B9: chr10:110135209:110135310:+|3pUTR|ENSG00000148700|msi1|total|mutant (ssRNA)
# RNA: GGGAGUUCUACAGUCCGACGAUCCUCUCUAUUGGAAGAUUUUUUUAAUGUUCUACAUCAUUUAUGUUGUAUUACAAUGUAUGCCGAAACCGUAACCUGUGAACUAUGCUUUUCCAUAACUUUUUAAAAAUAUAUAUAUCUAAACAACAGAGGAUUGAGCAUCA
# B10: chr8:42175261:42175472:-|3pUTR|ENSG00000104368|msi1|FALSE|unique (ssRNA)
# RNA: GGGAGUUCUACAGUCCGACGAUCGUAUUCCUUUUGUGUACAGUGUGUAAAGUGUAAAUCCUUUUUCUUUAUAAACUUUAGAGUAGCAUGAGAGAAUUGUAUCAUUUGAACAACUAGGCUUCAGCAUAUUUAUAGCAAUCCAUGCAACAGAGGAUUGAGCAUCA
# B11: chr19:45795712:45795987:-|three_prime_utr|ENSG00000104941|control|control|control (ssRNA)
# RNA: GGGAGUUCUACAGUCCGACGAUCGAGGAGGAGGGCGAGGAGGAGGAGGAGGGCGAGGAGACAGAUGACUGAGGCCCACCCUCUAGCCACUUUCCCCAAGCAGGUAGAUAGCAAAUUUCCCCUUAGAGGUAGUUAGCAUGGAUUCAACAGAGGAUUGAGCAUCA
# B12: chr6:42224930:42228669:-|three_prime_utr|ENSG00000124496|control|control|control (ssRNA)
# RNA: GGGAGUUCUACAGUCCGACGAUCUGAUCAAGAUUCAGUCUUGCUUCAGGGUGACGCAGAACUAUAAAGCCCUGUGUGUCACUUAGAGACAGUGAAAACCCACGGCCUCCAUCUUCAUUAAUCAGGAAACCUGGACUGCCUGCUCAACAGAGGAUUGAGCAUCA
# B13: chr1:45640296:45640398:-|CDS|ENSG00000159592|unk|FALSE|unique (ssRNA)
# RNA: GGGAGUUCUACAGUCCGACGAUCCUCUCCACUCUUGUACUUCACAGAAAACCCGCCUAGUGCCAAGCAACCCUCCAAGAUGCUAGUUAUCAAAAAAGUUUCCAAAGAGGAUCCUGCUGCUGCCUUCUCUGCUGCAUUCACCUCCAACAGAGGAUUGAGCAUCA
# B14: ENSG00000100994:stop:overlap|stop_codon|ENSG00000100994|stop_codon|NA|stop_codon (ssRNA)
# RNA: GGGAGUUCUACAGUCCGACGAUCAGAUCUGGGGUGUGGAGCCCUCCGACCUGCAGAUCCCGCCCCCCAACAUCCCCCGGGACUAGGCACACCCUGCCUUGGCGGGACCAGCGGGCAUUUGUUUUCUUGCUGACUUUGCACCUCCAACAGAGGAUUGAGCAUCA
# B15: chr7:80742902:80743013:-|3pUTR|ENSG00000075223|msi1_unk|FALSE|overlapping (ssRNA)
# RNA: GGGAGUUCUACAGUCCGACGAUCUCAGAGUCACAGUUCCCUUUAUUUCACAUAAGCCCAAACUGAUAGACAGUAACGGUGUUUAGUUUUAUACUAUAUUUGUGCUAUUUAAUUCUUUCUAUUUUCACAAUUAUUAAAUUGUGUCAACAGAGGAUUGAGCAUCA
# B16: chr12:109450965:109451066:-|3pUTR|ENSG00000110906|msi1|total|mutant (ssRNA)
# RNA: GGGAGUUCUACAGUCCGACGAUCGCCCGGGCACAAUCCCCACUGCUUUGCCCGACGUGCUUUCUGCCAUGUGGCUUUGGGCCCCGAGCUUGUUGAUAAUUGCAGCUUGUGGCAGUGGAAAUAUGGCUGAAUGAGCGUCUAAAUCAACAGAGGAUUGAGCAUCA
# B17: chr10:100209595:100209696:-|CDS|ENSG00000213341|unk|FALSE|unique (ssRNA)
# RNA: GGGAGUUCUACAGUCCGACGAUCACUUCUUUCAGAGACAGGAAUUUCUCUGGAUCCUCGGAAACCAGCCUCUCAAUGUGUUCUAGAUGGAGUUGUAAGAAAAUUAAUUAUAAUAUCCCUAGAGUAUGUGAAAUCUAGAGGGAUCAACAGAGGAUUGAGCAUCA
# B18: chr3:44647099:44647200:+|3pUTR|ENSG00000186448|msi1|FALSE|unique (ssRNA)
# RNA: GGGAGUUCUACAGUCCGACGAUCAUUUGUAUGUAAACUACAUAAAGAACUUUCCAAAUUUAACAGUAAUAAGUAAAUACAAUUAGAAAAUAAGCAAAAGACAGACAUUUCACUGAAGUAUAGAUAGCAAAUAAGCAAAUGAAACAACAGAGGAUUGAGCAUCA
# B19: chr19:53069209:53069329:-|CDS|ENSG00000170949|unk|total|mutant (ssRNA)
# RNA: GGGAGUUCUACAGUCCGACGAUCUGGAGAGAAACCUUACAAGUGCAAUGAGUGCGGCAAAGCCUUCCGUGUUCGUUCAAGCCCCGCAAUCCAUCAGACAAUCCACACUGGAGAAAAACCUUACAAAUGUAAUGAAUGUGGCAACAACAGAGGAUUGAGCAUCA
# B20: chr2:15946816:15946917:+|3pUTR|ENSG00000134323|unk|FALSE|unique (ssRNA)
# RNA: GGGAGUUCUACAGUCCGACGAUCUAUAUGCCUUUUUCCUAGCCUGUUUCUUCCUGUUAAUGUAUUUGUUCAUGUUUGGUGCAUAGAACUGGGUAAAUGCAAAGUUCUGUGUUUAAUUUCUUCAAAAUGUAUAUAUUUAGUGCUCAACAGAGGAUUGAGCAUCA
# B21: chr7:152122106:152122213:+|3pUTR|ENSG00000178234|unk|FALSE|unique (ssRNA)
# RNA: GGGAGUUCUACAGUCCGACGAUCAGUGGUUUUUAUCUGAUCAGGAACUUGUCAUGAUUUCCUUUCUUAGACUUCAUAGGAGAUAGUGCUUUAAAAAAAAAAAAAACUUCUAUUAUUUGUUUAGUAUGUUGUAAGUAGAUCAUUCAACAGAGGAUUGAGCAUCA
# B22: chr19:48382969:48383148:-|3pUTR|ENSG00000105438|msi1_unk|FALSE|overlapping (ssRNA)
# RNA: GGGAGUUCUACAGUCCGACGAUCACUUGGGCUGUUUGUAGUUUUUUGCCUUUUAGACAAGAAAAAAAAAUCUUUCCACUCUUUAGUUUUUGAUUCUGAUGACUCGUUUUUCUUCUACUCUGUGGCCCCAAUUUUUAUAAAGUGCAACAGAGGAUUGAGCAUCA
# Biological target: T1, UNK ZnF1-6 (called full-length)
# Assay: nsRBNS (natural sequence RNA bind-n-seq); RBNS binding buffer (assumed for nsRBNS): 25 mM Tris pH 7.5, 150 mM KCl, 3 mM MgCl2, 0.01% Triton X-100, 500 ug/ml BSA, 20 U/ml SUPERase-In, 4 C; UNK is unkempt and MSI1 is Musashi-1; names of the RNAs are library labels; protein concentration not given here; high values mean tight binding
row,Binder,binding signal [enrichment R]
1,B1,1.86
2,B2,0.542
3,B3,0.993
4,B4,1.08
5,B5,2.14
6,B6,0.497
7,B7,0.353
8,B8,0.685
9,B9,2.61
10,B10,4.78
11,B11,3.07
12,B12,0.447
13,B13,0.897
14,B14,0.625
15,B15,2.27
16,B16,0.739
17,B17,0.651
18,B18,162
19,B19,0.549
20,B20,1.93
21,B21,35
22,B22,5.21
